Values joined by “and” are separate entries in the source; they are usually repeats but may differ in a detail not shown here. Equal values may be shown once. Out of some 110,000 compounds screened, about 230 (0.21%) showed an effect of 50% or more. The list shows a part of the results.
biological target: DPAP1 (Plasmodium falciparum, UniProt Q8IIJ9); experiment: primary screen, percent inhibition; read by cleavage of a fluorogenic dipeptide substrate; higher = more effect of the substance; design: species or system P. falciparum D10 trophozoite lysates; single well
Sequence (Q8IIJ9 whole entry, looked up): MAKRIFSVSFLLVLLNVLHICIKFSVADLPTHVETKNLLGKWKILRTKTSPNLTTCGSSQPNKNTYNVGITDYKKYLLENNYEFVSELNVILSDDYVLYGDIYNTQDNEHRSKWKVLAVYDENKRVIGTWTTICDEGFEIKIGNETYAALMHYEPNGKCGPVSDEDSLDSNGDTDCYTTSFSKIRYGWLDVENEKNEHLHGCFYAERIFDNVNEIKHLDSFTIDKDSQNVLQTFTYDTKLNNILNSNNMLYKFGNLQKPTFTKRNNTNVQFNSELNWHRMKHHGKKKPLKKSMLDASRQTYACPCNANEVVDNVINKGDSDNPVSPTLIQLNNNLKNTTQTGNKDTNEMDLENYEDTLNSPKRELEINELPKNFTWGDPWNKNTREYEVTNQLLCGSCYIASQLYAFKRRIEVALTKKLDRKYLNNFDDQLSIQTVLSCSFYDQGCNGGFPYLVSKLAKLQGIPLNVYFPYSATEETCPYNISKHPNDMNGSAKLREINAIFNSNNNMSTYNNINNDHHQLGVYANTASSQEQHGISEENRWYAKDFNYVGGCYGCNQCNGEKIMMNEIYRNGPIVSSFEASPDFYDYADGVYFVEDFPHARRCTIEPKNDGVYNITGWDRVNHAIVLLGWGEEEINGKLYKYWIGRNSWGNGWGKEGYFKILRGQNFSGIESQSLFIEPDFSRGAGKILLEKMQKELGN
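Also: 30 min substrate incubation versus DMSO and 10 µM JCP410 controls.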

Structure (SMILES) | % Inhibition @ 10 uM
CC(C)N(Cc1ccccc1)S(=O)(=O)c1ccc(-n2cccn2)cc1 | -0.913%
Cc1ccc(C)c(N(CC(=O)NCCSc2ccccn2)S(C)(=O)=O)c1 | -6.52%
O=C(NCCCN1CCCCC1)C1CCN(S(=O)(=O)c2cccc3nsnc23)CC1 | -9.18%
COc1ccc(/C=C2\N=C(c3ccccc3OC)OC2=O)cc1 | -1.65%
CCOC(=O)C1=C(C)N=c2s/c(=C\c3cccs3)c(=O)n2C1c1ccc2c(c1)OCO2 (centres unmarked) | 1.72%
Nc1nc2sc3c(c2cc1C(=O)NCC(=O)O)CCCC3 | -3.48%
Cc1nn(CC(=O)NC(C)CCc2ccccc2)c(=O)c2nn(-c3ccccc3)c(C)c12 (centres unmarked) | -3.05%
N#C/C(=C\c1cccc2ccccc12)c1nc(-c2ccc(Cl)cc2)cs1 | -0.268%
CC1CCCC(NC(=O)Cn2ncc3c4ccccc4nc-3c2O)C1C (centres unmarked) | 0.244%
O=C(CSc1nc2cc(Br)ccc2[nH]1)NC1CCCCC1 | 1.89%
Cc1ccc(-n2nc3c(=O)n(CCCC(=O)N(C)Cc4ccccc4)nc(C)c3c2C)cc1 | -9.2%
CCOC(=O)c1c(N)sc2c1CC(C)(C)OC2 | 13.1%
CC(=O)c1cccc(NC(=O)c2cccc(Cl)c2)c1 | -1.88%
CC1(C)CC(=C2C(=O)c3ccccc3C2=O)C=C2c3ccccc3C(=O)C21 (centres unmarked) | -11.3%
COc1cc(C2c3c(-c4ccccc4O)n[nH]c3C(=O)N2Cc2ccco2)ccc1O (centres unmarked) | -3.12%
COc1cc(C(=O)CC2OC(O)C(Cl)=C2Cl)ccc1Cl (centres unmarked) | -6.18%
COc1ccc(N2CCN(C(=O)c3ccc(N(C)S(C)(=O)=O)cc3)CC2)cc1 | 3.58%
CC(C)NC(=O)COc1ccc(S(=O)(=O)NC2CCCCC2)cc1 | 4.11%
O=C(NCCCN1CCCC1=O)c1cc2c(s1)CSC2 | 2.12%
CCn1c(C)cc(/C=C2/NC(=O)N(c3ccccc3)C2=O)c1C | -2.19%
O=S(=O)(Nc1cccc(Cl)c1Cl)c1ccc(Cl)cc1 | 4.04%
Cc1ccccc1OCCn1c(C)nc2ccccc21 | -8.85%
Cc1ccc(F)cc1NC(=O)C1CCCN1C(=O)OCC(C)C (centres unmarked) | -4.65%
COc1ccc(S(N)(=O)=O)cc1C(=O)NCc1ccccc1 | 6.52%
Fc1ccc(CN2CCN(c3ccccn3)CC2)c(F)c1 | -3.94%

Structure (SMILES) | % Inhibition @ 10 uM
NC1=[N+](CC(=O)c2ccccc2)Cc2ccccc21 | 4.35%
CCn1nc(NS(=O)(=O)c2ccccc2)c2cc3cccc(C)c3nc21 | 1%
CCC(C)c1ccc(NS(=O)(=O)c2c(C)cc(C)cc2C)cc1 (centres unmarked) | 2.22%
Cc1cc(C)c(S(=O)(=O)NCc2ccccc2)c(C)c1 | -4.43%
N#Cc1c(NCc2ccccc2)ccnc1O | -4.96%
CC(C)c1ccc(-c2c(NCCCc3ccccc3)c(=O)c2=O)cc1 | -4.07%
CCN(Cc1ccccc1)C(=O)Cn1c(SCc2cccc(F)c2)nc2cccnc21 | -1.68%
CCc1ccc(CNc2nc3nc(C)cc(O)n3n2)cc1 | -0.671%
O=C(Cn1cnc2ccccc21)c1ccccc1 | 2.73%
O=C(c1ccc(CNc2c(N3CCOCC3)c(=O)c2=O)cc1)N1CC=C(c2ccccc2)CC1 | 1.15%
COc1ccc(S(=O)Cc2ccc(C(=O)NCCc3ccc(OC)c(OC)c3OC)o2)cc1 (centres unmarked) | -4.82%
CC(=O)c1c(C)cc(C)c(C(=O)O)c1C | -0.744%
COc1cccc(-c2cc(C(=O)NCC34CC5CC(CC(C5)C3)C4)on2)c1 | 3.27%
Cc1ccc(-n2nc3c(N4CCC(C(=O)NCc5ccc(Cl)cc5)CC4)nnc(C)c3c2C)cc1 | 4.4%
CCO/C(O)=C1\C(C)=NC2=C(C(=O)CC(C)(C)C2)C1c1c(C)nn(-c2ccccc2)c1C (centres unmarked) | 5.5%
CCOC(=O)c1c(C)oc2nc(C)nc(NCc3ccco3)c12 | 2.77%
O=C(Nc1ccc(Br)cc1F)C1CC(=O)N(c2ccccc2)C1 (centres unmarked) | 11.7%
Cc1c(C(=O)N(Cc2ccc(Cl)cc2)C2CCS(=O)(=O)C2)oc2ccccc12 (centres unmarked) | -1.33%
COc1ccc(-n2nc3cc(C)c(NC(=O)c4cc(OC)c(OC)c(OC)c4)cc3n2)cc1 | -5.06%
Cc1nnc(NC(=O)CSc2cn(Cc3ccccc3C)c3ccccc23)s1 | 1.62%
CCSc1nnc(NC(=O)C2CCC(CNS(=O)(=O)c3cccc4nsnc34)CC2)s1 (centres unmarked) | 1.26%
CC1=C(C(=O)Nc2cccnc2)C(c2ccc(Cl)c(Cl)c2)n2nc(-c3cccs3)nc2N1 (centres unmarked) | 2.53%
NCC(O)COCCC12CC3CC(CC(C3)C1)C2 (centres unmarked) | 0.00784%
CC(=O)N1N=C(c2ccccc2)CC1c1ccc(N(C)C)cc1 (centres unmarked) | 5.87% and 1.92%
CCOC(=O)c1sc(NC(=O)c2noc3c2CCc2ccccc2-3)c(C(=O)OCC)c1C | -0.591%

Structure (SMILES) | % Inhibition @ 10 uM
O=C(CCCOc1ccc(Cl)cc1Cl)Nc1ccc(S(=O)(=O)N2CCCCC2)cc1 | -2.82%
CCOC(=O)N1CCN(c2cc(C)nc3c(-c4ccccc4OC)c(C)nn23)CC1 | -2.72%
Cc1ccc(N2CCN(Cc3c(C)n(C)n(-c4ccccc4)c3=O)CC2)cc1 | 3.15%
CCC1C(=O)C(CC)C(c2ccccc2)NC1c1ccccc1 (centres unmarked) | 1%
COc1ccc(-c2[nH]nc3c2C(c2c[nH]nc2-c2ccc(F)cc2)C(C#N)=C(N)O3)cc1OC (centres unmarked) | -0.25%
NC(=O)c1ccccc1NC(=O)c1ccc(Cn2cc(Br)cn2)o1 | -7.08%
N#Cc1cc2c(=O)n3ccccc3nc2n(CCc2ccccc2)c1=O | 1.12%
Cc1ccc(NC(=O)c2ccco2)cc1Br | -5.36%
COc1ccc(S(=O)(=O)c2c(SC)nn(C)c2N)cc1 | 2.14%
CCOc1ccc2nc(N3CCCC(C(=O)NC4CCCc5ccccc54)C3)sc2c1 (centres unmarked) | -3.35%
Cc1nnc(N2CCC(C(=O)N(C)Cc3ccccc3)CC2)c2nn(-c3ccc(Cl)cc3)c(C)c12 | 10.2%
CCOC(=O)N1C(=O)c2ccccc2NC1(C(F)(F)F)C(F)(F)F | -10.7%
CC1CCCCN1C(=O)C1Sc2nnc(-c3ccccc3)n2NC1c1ccc(Cl)cc1 (centres unmarked) | 7.94%
Cc1ccc(C2CC(C(F)(F)F)n3nc(C(=O)Nc4cccnc4Cl)cc3N2)cc1 (centres unmarked) | 7.93%
CCCC[S+](O)CC(O)COc1ccc(Cl)cc1 (centres unmarked) | -0.636%
CCCCN1C(=O)C(c2c(C)nn(-c3ccccc3)c2O)(C(F)(F)F)C2=C1CC(C)(C)CC2=O (centres unmarked) | 1.91%
O=C1Nc2ccccc2C1(O)c1c[nH]c2ccccc12 (centres unmarked) | 4.9%
COC(=O)c1nc(N)n(-c2nc(-c3cccs3)cc(C(F)(F)F)n2)n1 | -0.591%
COc1ccc(NC(=O)COc2ccccc2C(C)(C)C)cc1OC | -1.63%
CCCC12CN3CC(C)(CN(C1)C3c1cc3ccccc3[nH]1)C2=O (centres unmarked) | -5.33%
COCCCNC(=O)c1cc(-c2ccc(OC)cc2)nc2[nH]nc(-c3ccc(F)cc3)c12 | 3.27%
COc1ccc(Br)cc1C1N2CC3(C)CN1CC(c1ccccc1)(C2)C3=O (centres unmarked) | 6.7%
O=C1NC2=C(CCc3ccccc32)C(c2ccccc2)N1 (centres unmarked) | 5.37%
Cc1ccccc1NC1=NC(=O)/C(=C/c2cccn2C)S1 | -2.22%
CC(C)(C)OC(=O)N[C@@H](CC1CCCCC1)C(=O)NCC#N | -6.98%

Structure (SMILES) | % Inhibition @ 10 uM
O=c1c(Cc2ccccc2)c(N2CCOCC2)nc2n1CCCS2 | 3.81%
CC(C)Oc1ccc(CC(=S)N2CCOCC2)cc1 | 3.05%
O=C1C2C3C=CC(C3)C2C(=O)N1Cc1ccccc1Cl (centres unmarked) | 5.49%
COc1ccc(NC(=O)c2cnn(-c3ccccc3)c2C)cc1 | -1.52%
CCOC(=O)N1CCC(NC(=O)C2CCN(S(=O)(=O)N3CCC(C)CC3)CC2)CC1 | -4.97%
CC(C)NS(=O)(=O)c1ccc([N+](=O)[O-])cc1 | -3.48%
O=C(O)CCC(=O)Nc1ccccc1C(=O)NCc1ccccc1 | -6.57%
CC(C)c1ccc(NC(=O)CN(Cc2ccccc2)S(=O)(=O)c2ccc3c(c2)OCCO3)cc1 | 0.52%
O=C(CSC(c1ccccc1)c1ccccc1)N1CCOCC1 | -4.48%
CCc1nc2cc(Oc3ccc4[nH]c(CC)nc4c3)ccc2[nH]1 | 1.19%
CCc1nn(CC(=O)NCc2cccs2)c(=O)c2cc3occc3n12 | -3.79%
Cc1c(OCC(=O)O)ccc2c1oc(=O)c1ccccc12 | 4.66%
O=C(O)[C@@H]1CSC(c2cccnc2)N1 (some centres unmarked) | -9.13%
CCCCN(Cc1ccccc1)C(=O)C1CCN(S(=O)(=O)c2c(C)n[nH]c2C)CC1 | -2.7%
COCCOC(=O)c1c(C)n(-c2ccc(F)cc2)c2c1cc(O)c1ccccc12 | 2.62%
CC1=C(C#N)C(c2ccc(F)cc2)C2=C(O)CC(c3ccccc3)CC2=N1 (centres unmarked) | -11.9%
CCOC(=O)C1=C2N(C)c3ccccc3N2CCC1=O | -0.424%
Cc1cc(N2CCC(C)CC2)n2nnnc2n1 | 2.55%
C(=C\c1ccccc1)/CN1CCN(C2CCCCCC2)CC1 | -3.6%
CCOC(=O)N1CCN(C(=O)C2CC(c3ccccc3F)=NO2)CC1 (centres unmarked) | 1.24%
O=C(CN(C1CCCCC1)S(=O)(=O)c1ccc(F)cc1)N1CCN(c2ccccc2F)CC1 | 3.72%
COc1cc2ccccc2cc1C(=O)Nc1ccccc1C | -4.23%
CCOc1ccc(Oc2nc(NCC(C)C)nc(OC)n2)nn1 | -0.958%

— article PMC6919601, “Identification of Plasmodium dipeptidyl aminopeptidase allosteric inhibitors by high throughput screening” (PLoS ONE, 2019)
